# Laboratory results as given in article PMC4336329 (PLoS ONE, 2015).
# Out of some 310,000 compounds screened, about 14,000 (4.5%) showed an effect of 50% or more. The effect is printed as a negative number. Some of the results follow.
# Molecular target: human ether-à-go-go-related gene (hERG) potassium channel (human, UniProt Q12809)
# Test: primary screen, population patch clamp on CHO cells stably expressing hERG
# 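Note: peak tail current of the secondary pulse compared with the same well before compound.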
# human ether-à-go-go-related gene (hERG) potassium channel, sequence (Q12809 whole entry, looked up): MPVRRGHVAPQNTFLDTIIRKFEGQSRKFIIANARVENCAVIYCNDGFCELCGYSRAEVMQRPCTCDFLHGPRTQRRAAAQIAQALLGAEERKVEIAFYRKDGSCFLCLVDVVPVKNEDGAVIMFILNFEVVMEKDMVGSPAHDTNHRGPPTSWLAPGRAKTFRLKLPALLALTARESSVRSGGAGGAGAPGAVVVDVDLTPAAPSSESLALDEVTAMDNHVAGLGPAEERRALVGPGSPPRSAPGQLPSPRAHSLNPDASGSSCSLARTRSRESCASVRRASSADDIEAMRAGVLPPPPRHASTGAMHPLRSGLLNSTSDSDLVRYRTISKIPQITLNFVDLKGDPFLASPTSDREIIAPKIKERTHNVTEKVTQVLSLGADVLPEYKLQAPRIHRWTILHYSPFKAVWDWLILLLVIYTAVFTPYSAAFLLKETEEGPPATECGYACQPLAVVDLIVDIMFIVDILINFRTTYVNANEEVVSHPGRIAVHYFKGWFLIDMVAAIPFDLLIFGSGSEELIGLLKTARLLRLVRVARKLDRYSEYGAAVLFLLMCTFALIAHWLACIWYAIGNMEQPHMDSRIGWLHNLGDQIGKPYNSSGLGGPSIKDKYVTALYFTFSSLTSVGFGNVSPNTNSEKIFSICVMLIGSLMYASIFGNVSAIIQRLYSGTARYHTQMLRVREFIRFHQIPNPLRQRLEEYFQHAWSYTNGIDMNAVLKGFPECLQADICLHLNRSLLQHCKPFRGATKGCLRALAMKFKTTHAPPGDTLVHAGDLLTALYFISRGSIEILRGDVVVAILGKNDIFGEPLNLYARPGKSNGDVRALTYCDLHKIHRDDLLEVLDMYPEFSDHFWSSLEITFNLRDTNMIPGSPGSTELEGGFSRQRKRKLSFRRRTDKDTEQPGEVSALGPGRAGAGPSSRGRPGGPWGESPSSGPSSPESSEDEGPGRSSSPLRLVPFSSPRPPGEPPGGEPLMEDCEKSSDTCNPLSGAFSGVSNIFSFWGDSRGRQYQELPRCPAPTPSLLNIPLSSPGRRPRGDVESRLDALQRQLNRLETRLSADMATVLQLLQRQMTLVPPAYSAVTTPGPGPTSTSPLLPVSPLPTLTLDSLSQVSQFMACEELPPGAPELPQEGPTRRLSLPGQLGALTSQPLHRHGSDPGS
row,Compound,"hERG current change (%, negative = inhibition) at 10uM [%]"
1,CCCOc1ccc(N2C(=O)CC(N3CCC(C(=O)OCC)CC3)C2=O)cc1 (stereo not shown),-20.1
2,O=C1NC[C@H](Cc2ccc(O)cc2)N(CCc2cccc3ccccc23)C1=O,-4.26
3,CC1CC(C)CN(C(=O)CSc2ccsc2[N+](=O)[O-])C1 (stereo not shown),-26.1
4,CC(C)C(=O)Nc1nnc(Cc2c[nH]c3ccccc23)s1,28
5,Cc1ccccc1-c1nc(C#N)c(N2CCCCC2)o1,15
6,CN(C)S(=O)(=O)N1CCC(n2nccc2NC(=O)CCc2ccccc2)CC1,-4.77
7,O=C(COC(=O)/C=C/c1cccc([N+](=O)[O-])c1)NCCCN1CCCC1=O,-9.61
8,Cc1ccc(N2C(=O)CC3(CC4C=CC3C4)C2=O)cc1 (stereo not shown),6.7
9,COC(=O)c1ccccc1N=C(SC)N(C)C,9.6
10,COC(=O)c1cc(OC)c(OC)cc1NC(=S)NC(=O)c1ccco1,10.8
11,CCC(=O)Nc1cc(-c2nnc(OC)c3ccccc23)ccc1N1CCOCC1,-5.46
12,O=S(=O)(Cc1ccc(Cl)cc1)Nc1ccc2c(c1)OCO2,-6.54
13,COc1ccc(CN2CCN(Cc3ccc(C)cc3)CC2)c(OC)c1.O=C(O)C(=O)O,-70.3
14,CN(C)S(=O)(=O)N1CCN(CC(=O)Nc2ccc(F)cc2)CC1,-69.7
15,CCOc1cc(C2C(C#N)=C(N)Oc3cc(N)ccc32)ccc1O (stereo not shown),4.76
16,COC(=O)c1nn(Cc2ccccc2)c(=O)c2ccccc12,-3.51
17,COc1ccc(NC(=O)COc2ccc3c(C)cc(=O)oc3c2)cc1S(=O)(=O)N1CCCCC1,-1.06
18,CN(C(=O)c1ccccc1OC1CCN(S(C)(=O)=O)CC1)C1CCOC1 (stereo not shown),11.7
19,COCCN1C2=C(COC(C)(C)C2)C(=S)NC1c1ccccc1 (stereo not shown),9.13
20,CN(C)S(=O)(=O)N(CC(=O)N1CCC(Cc2ccccc2)CC1)c1ccccc1,-0.114
21,COC(=O)c1ccccc1NC(=O)c1ccc(F)cc1,4.96
22,O=C(N/N=C/c1cc([N+](=O)[O-])ccc1O)c1cccc2cc[nH]c12,-5.42
23,CCCN=CC1=C(O)CC(c2ccccc2)CC1=O (stereo not shown),-13.8
24,OCCC1CN(Cc2cccc3c2OCO3)CCN1C1CCCC1 (stereo not shown),-20.4
25,O=C(O)c1cccc(N/N=C/c2sc(N3CCOCC3)nc2-c2ccccc2)c1,-13.4
